# Measurements taken from article PMC4336329 (PLoS ONE, 2015).
# Out of some 310,000 compounds screened, about 14,000 (4.5%) showed an effect of 50% or more. Effects have a minus sign here. This is one part of the list.
# Biological target: human ether-à-go-go-related gene (hERG) potassium channel (human, UniProt Q12809)
# Experiment: primary screen, population patch clamp on CHO cells stably expressing hERG
# 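Also: peak tail current of the secondary pulse compared with the same well before compound.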
# Chain of human ether-à-go-go-related gene (hERG) potassium channel (Q12809 whole entry, looked up): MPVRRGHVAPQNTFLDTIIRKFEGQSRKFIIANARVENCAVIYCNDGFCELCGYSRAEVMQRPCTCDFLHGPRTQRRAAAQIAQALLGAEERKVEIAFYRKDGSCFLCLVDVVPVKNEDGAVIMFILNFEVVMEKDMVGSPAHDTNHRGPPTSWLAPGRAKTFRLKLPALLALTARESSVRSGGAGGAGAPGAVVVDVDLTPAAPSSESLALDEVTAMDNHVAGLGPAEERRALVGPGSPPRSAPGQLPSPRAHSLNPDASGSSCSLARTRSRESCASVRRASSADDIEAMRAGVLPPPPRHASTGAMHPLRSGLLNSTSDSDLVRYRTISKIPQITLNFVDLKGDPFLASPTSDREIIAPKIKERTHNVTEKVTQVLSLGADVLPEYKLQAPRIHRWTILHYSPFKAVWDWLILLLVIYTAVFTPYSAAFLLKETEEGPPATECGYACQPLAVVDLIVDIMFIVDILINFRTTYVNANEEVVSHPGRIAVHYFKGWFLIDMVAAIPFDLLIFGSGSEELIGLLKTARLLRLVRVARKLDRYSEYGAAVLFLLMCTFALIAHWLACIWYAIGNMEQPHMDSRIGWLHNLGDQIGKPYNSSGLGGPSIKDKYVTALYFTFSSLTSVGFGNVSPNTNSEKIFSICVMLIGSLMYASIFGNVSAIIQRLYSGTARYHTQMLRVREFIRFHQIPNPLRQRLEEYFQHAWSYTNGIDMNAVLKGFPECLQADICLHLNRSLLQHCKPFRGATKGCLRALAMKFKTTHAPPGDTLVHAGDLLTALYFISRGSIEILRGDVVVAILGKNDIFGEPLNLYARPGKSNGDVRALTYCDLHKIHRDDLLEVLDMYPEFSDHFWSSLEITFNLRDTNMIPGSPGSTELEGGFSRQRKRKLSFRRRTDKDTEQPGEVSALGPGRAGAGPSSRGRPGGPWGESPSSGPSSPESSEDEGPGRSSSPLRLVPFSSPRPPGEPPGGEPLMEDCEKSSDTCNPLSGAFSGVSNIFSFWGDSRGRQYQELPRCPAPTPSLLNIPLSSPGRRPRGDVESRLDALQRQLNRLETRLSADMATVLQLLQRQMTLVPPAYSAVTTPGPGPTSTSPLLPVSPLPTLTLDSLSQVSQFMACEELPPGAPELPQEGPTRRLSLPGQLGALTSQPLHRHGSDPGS
row,SMILES,"hERG current change (%, negative = inhibition) at 10uM [%]"
1,CCOCCCn1c(C)nc2c(c1=O)c1nc3ccccc3nc1n2CCC1=CCCCC1,-4.67
2,CCc1ccc(NC(=O)CSc2nc3[nH]ncc3c(=O)[nH]2)cc1,19.6
3,COC(=O)c1ccc(NS(=O)(=O)NC(=O)c2c[nH]c3ccccc23)cc1,20.2
4,Cc1cccc(C(=O)Nc2ccc(C(=O)/C=C/c3cccnc3)cc2)c1,8.97
5,Cc1ccc(C(=O)N/C(=C\c2ccc(-c3ccc(Br)cc3)o2)C(=O)NC2CCS(=O)(=O)C2)cc1 (stereo not drawn),-5.68
6,O=C(NCc1cccnc1)c1ccc(Cn2c(=S)[nH]c3ccc(Br)cc3c2=O)cc1,13.7
7,CC(C)CC(=O)/C(=C/c1ccc(N(C)C)cc1)n1cncn1,6.07
8,O=c1oc2cc(O)ccc2cc1-c1ccccc1,12.6
9,O=C(CSc1n[nH]c(-c2cccnc2)n1)OC1CCCCC1,10
10,COc1ccccc1CN(Cc1nc2ccccc2c(=O)[nH]1)C(=O)Nc1ccccc1C,6.67
11,Cc1ccc(-n2cccc2C(=O)NS(=O)(=O)c2ccc(C)cc2)cc1,-1.11
12,COc1ccc(-c2c(C(F)(F)F)oc3c(CN4CCN(C)CC4)c(O)ccc3c2=O)cc1,9.96
13,O=C(NC1CCS(=O)(=O)C1)c1cccc(S(=O)(=O)N2CCCC2)c1 (stereo not drawn),16.9
14,CN(Cc1cccc2cnccc12)C(=O)c1cc(COc2ccc(F)cc2Cl)on1,-19.1
15,O=C(O)c1ccc(CNC(=O)c2ccc(C(F)(F)F)cc2)cc1,9.96
16,CCC(=O)Nc1ccc(C(=O)CN2C(=O)NC3(CCOc4ccccc43)C2=O)cc1 (stereo not drawn),-8.45
17,COc1ccc(Cl)cc1S(=O)(=O)N1CCCC1=O,-0.656
18,Cc1ccc(O)c(C2=Nc3ccccc3N=C(c3cccs3)C2)c1,12
19,Cc1ccccc1NC(=O)c1ccc2c(O)c(S(=O)(=O)c3ccccc3)c(=O)[nH]c2c1,8.7

row,SMILES,"hERG current change (%, negative = inhibition) at 10uM [%]"
1,CCOC(=O)N1CCN(CC(=O)N2c3ccccc3CCc3ccccc32)CC1.O=C(O)C(=O)O,-10.1
2,CCCN(CCC)c1nc(N)c(C#N)c(CC#N)c1C#N,-4.14
3,Cc1ccc(S(=O)(=O)N(C)C)cc1NC(=O)CCNC(=O)c1ccco1,16.6
4,Cc1cc(NS(=O)(=O)c2ccc(NC(=S)NC(=O)/C=C/c3ccccc3)cc2)no1,7.71
5,CCc1c(C)nc2cc(-c3cc(OC)cc(OC)c3)nn2c1N1CCN(CCN2CCOCC2)CC1,-33.5
6,CC(C(=O)NCC1CCCCC1)N(C)Cc1ccc(Cl)cc1 (stereo not drawn),-12.1
7,C/C(NCc1cccnc1)=C(\C#N)C(=O)NCc1ccccc1,-7.27
8,Cc1cc(=O)n(C)c(=O)n1CCCCCN1CCCC1.O=C(O)C(=O)O,5.16
9,Cc1cccc(CS(=O)(=O)Cc2ccc(C(=O)NCC3CCCO3)o2)c1 (stereo not drawn),-16.6
10,CCOC(=O)C(=O)Nc1cc(C(=O)OC)cc(C(=O)OC)c1,13.5
11,COc1ccc(NC(=O)Cc2ccc(Cl)c(Cl)c2)cn1,34.7
12,O=C(COC(=O)c1ccc([N+](=O)[O-])cc1)Nc1cccnc1Cl,-1.85
13,Cn1ccsc1=NC(=O)c1cc(S(=O)(=O)N2CCOCC2)ccc1Cl,-4.3
14,CC(=O)Nc1sc2c(c1C(c1cccc(F)c1)N1CCN(CCO)CC1)CCCC2 (stereo not drawn),-41.4
15,O=C(O)c1ccc(S(=O)(=O)Nc2cccc(CP(=O)(c3ccccc3)c3ccccc3)c2)cc1,17.6
16,Nc1ccccc1Nc1cccc(C(F)(F)F)c1,8.31
17,NC(=O)C1CCN(C(=O)Nc2csc3ccccc23)CC1,4.59
18,COc1ccc(OC)c(C(=O)COC(=O)c2cc(C)oc2C)c1,11.8
19,CN(CCN(C)C(C)(C)C)C(=O)C(c1ccccc1)c1ccccc1,-8.05

row,SMILES,"hERG current change (%, negative = inhibition) at 10uM [%]"
1,CC1CCN(c2ccccc2NC(=S)NC(=O)c2cccs2)CC1,-50.2
2,CN1CCN(C(=O)c2ccc(F)c(F)c2)CC1,6.82
3,CSc1nc(N)nc(SCC(=O)c2ccc(C)cc2)c1C#N,7.8
4,CC(C)c1ccccc1NC1=NCCCS1,4.91
5,Cc1cc(NC(=O)c2ccccc2Cl)n(C(C)(C)C)n1,19.3
6,CC(CCN1CCOCC1)c1ccccc1 (stereo not drawn),21.9
7,CC(C)(C)c1ccc(OCc2cnc(Cl)s2)cc1,21.6
8,CCOC(=O)COc1cccc(C2NC(=O)c3ccccc3O2)c1 (stereo not drawn),-0.167
9,N#C/C(=C\c1ccccc1Br)C(=O)NC1CC1,-15.5
10,Cn1c(=O)c2c(nc(Br)n2CCc2ccccc2)n(C)c1=O,-3.12
11,Oc1cccc(/C=N/N2CCN(c3ccccn3)CC2)c1,-12.2
12,N#C/C(=C\c1cn[nH]c1-c1ccc(Cl)cc1)C(=O)NCc1ccccc1,-4.37
13,COc1cccc(CN2CCNC(=O)C2CC(=O)NCCN2CCCCC2=O)c1 (stereo not drawn),17
14,CC(C)(C)n1nnnc1C(c1ccc(F)cc1)N1CCN(Cc2ccc3c(c2)OCO3)CC1 (stereo not drawn),-37.8
15,CN(C)C=O.Cc1cc(C)n2nc(C(=O)OCC(=O)c3c[nH]c4ccccc34)nc2n1,29
16,C/C(=N\NC(=O)C1CC1)c1cccs1,9.16
17,Cc1cc(=O)[nH]c2c(C)cc(S(=O)(=O)NCc3ccccc3)cc12,11.7
18,COc1ccc(C(=O)N2CCN=C2SC)cc1OC,-5.58
19,Cc1ccc(C(=O)Nc2nc(-c3cc(Cl)sc3Cl)cs2)cc1,4.2
